# Assay results as given in PubChem BioAssay AID1159614 (National Center for Advancing Translational Sciences (NCATS), 2016).
# Screen size: about 45,000 compounds; about 65 (0.1%) were called active. Calls come from the whole dose curve; as a rule, active = well fitted activation curve with a large enough effect; inconclusive = small, poorly fitted or top-dose-only effect; inactive = no such curve, though single readings can be large or run the other way. The list shows a part of the results.
# Molecular target: Galactocerebrosidase (Homo sapiens) (UniProt P54803)
# Test: A Novel Cell-Based Assay to Identify Small Molecules for B -Galactocerebrosidase; note: 0% is about no effect; nearly all actives have a fitted effect of over 65% in size
# Settings: 145M-Twi-hGALC-G270D cells (Twitcher mouse brain line with human GALC G270D), HMU-beta-Gal fluorescence, 48 h; series mostly up to 57.5 µM; activation: at the top concentration
# In short: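 Fluorescence readout: HMU-β-gal cleavage by mutant GALC (0.1 mM final, citrate/phosphate pH 5.2 with 1 mg/mL taurocholate), stopped with carbonate/bicarbonate plus Triton X-100. Cells: murine Twitcher 145M-Twi expressing human G270D GALC; qHTS for activators.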
# UniProt P54803, sequence (P54803 whole entry, looked up): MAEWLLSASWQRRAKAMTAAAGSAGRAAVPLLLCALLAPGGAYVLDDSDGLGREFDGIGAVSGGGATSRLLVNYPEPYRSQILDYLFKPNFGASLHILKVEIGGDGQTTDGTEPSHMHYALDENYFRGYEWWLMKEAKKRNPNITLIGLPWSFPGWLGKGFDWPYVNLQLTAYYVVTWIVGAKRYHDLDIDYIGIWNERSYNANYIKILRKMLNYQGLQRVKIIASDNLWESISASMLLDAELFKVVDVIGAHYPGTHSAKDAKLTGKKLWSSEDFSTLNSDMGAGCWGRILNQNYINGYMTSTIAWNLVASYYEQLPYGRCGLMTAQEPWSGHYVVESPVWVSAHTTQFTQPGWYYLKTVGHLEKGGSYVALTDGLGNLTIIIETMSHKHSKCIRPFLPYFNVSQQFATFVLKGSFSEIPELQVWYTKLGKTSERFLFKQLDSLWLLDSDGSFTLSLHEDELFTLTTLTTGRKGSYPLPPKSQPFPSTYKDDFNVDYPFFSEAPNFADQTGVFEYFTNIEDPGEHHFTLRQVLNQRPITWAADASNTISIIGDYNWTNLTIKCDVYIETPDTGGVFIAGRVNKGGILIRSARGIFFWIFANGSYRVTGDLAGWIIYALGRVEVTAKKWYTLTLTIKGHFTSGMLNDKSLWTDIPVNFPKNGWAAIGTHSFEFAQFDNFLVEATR
row,Compound,activation
1,COc1ccc(NC(=O)c2ccc3c(c2)N(Cc2cccc(Cl)c2)C(=O)c2ccccc2S3(=O)=O)cc1Cl,inactive: -1.33%
2,CCN(CC)C(=O)Cn1ncc2c([nH]c3ccc(C)cc32)c1=O,inactive: 4.59%
3,CCOc1ccccc1CNC(=O)C1CCN(C(=O)N2CCOc3ccc(Cl)cc32)CC1,inactive: -8.33%
4,O=C1c2c(O)ccc(O)c2C(=O)c2c(NCCNCCO)ccc(NCCNCCO)c21,inactive: -11.1%
5,COc1ccc(OC)c(NC(=O)c2oc3c(c2C)-c2nn(Cc4ccc(Cl)cc4)cc2CC3)c1,inactive: -8.06%
6,CC(C)Oc1ccc(CNC(=O)c2ccc(CS(=O)Cc3ccccc3Cl)o2)cc1 (stereo not drawn),inactive: -6.02%
7,Cc1cn2c(=O)cc(COC(=O)c3cccc(NC(=O)COc4ccccc4)c3)nc2s1,inactive: -0.728%
8,CCOC(=O)c1c(NC(=O)CSc2cn(CCNC(=O)c3ccc(OC)c(OC)c3)c3ccccc23)sc2c1CCC2,inactive: -14.7%
9,Cc1cccc(N2CCN(c3nc4ccc(C(=O)c5ccccc5)cc4n4cnnc34)CC2C)c1 (stereo not drawn),inactive: -16.3%
10,Cc1cc(C)n2nc(-c3ccc(Cl)cc3)nc2n1,inactive: -15.6%
11,CC(=O)Nc1ccc(NC(=O)Cn2cc3c(n2)CCCCC3)cc1,inactive: -16.8%
12,Cc1ccc2c(CC(=O)N3CCN(c4cccc(Cl)c4)CC3)coc2c1C,inactive: -20.2%
13,Cc1cccc(OCCSc2nc3ccc(NC(=O)COc4ccccc4C)cc3s2)c1,inactive: -6.58%
14,Cc1ccccc1Cn1nnc2c(=O)[nH]c(C3CCCN(C(=O)c4ccc(F)cc4)C3)nc21 (stereo not drawn),inactive: -13.5%
15,COc1ccc(NC(=O)CC2C(=O)N(c3ccc(C)cc3)C(=O)N2Cc2ccc3c(c2)OCO3)cc1 (stereo not drawn),inactive: -15.3%
16,CCOC(=O)c1ccc(NC(=O)CSc2nnc(CNC(=O)c3ccc(OC)cc3)n2CC)cc1,inactive: -8.34%
17,CCOC(=O)C1=C(C)NC(C)=C(C(=O)OC)C1c1cccc(Cl)c1Cl (stereo not drawn),inactive: -8.71%
18,COc1ccc(Nc2nc3cc(Cl)c(Cl)cc3n3cnnc23)cc1Cl,inactive: -13.9%
19,Cn1c(=O)oc2cc(S(=O)(=O)N3CCC(C(=O)NCc4ccc(F)cc4)CC3)ccc21,inactive: -17.1%
20,O=C(Nc1nnc(S(=O)(=O)N2CCCC2)s1)c1ccccc1Br,inactive: 7.73%

row,Compound,activation
1,Cc1ccc2c(c1)N(C(=O)CCC(=O)NCc1cccs1)CCO2,inactive: -22.5%
2,COc1cc(N2C(=O)CSC23C(=O)N(Cc2ccc(C)cc2)c2ccccc23)cc(OC)c1OC (stereo not drawn),inactive: -17%
3,Cc1ccc(C)c(CN2C(=O)c3ccccc3S(=O)c3ccc(C(=O)N4CCN(c5ccccc5F)CC4)cc32)c1 (stereo not drawn),inactive: 0.784%
4,COc1cc2c(cc1OC)C(COc1ccc(C(C)C)cc1)N(C(=O)c1ccc(S(=O)(=O)N3CCCC3)cc1)CC2 (stereo not drawn),inactive: -19.7%
5,CC1CCN(CCCNC(=O)c2cn(C)c3ccc(S(=O)(=O)N(C)C4CCCCC4)cc3c2=O)CC1,inactive: -16.8%
6,COc1ccc(N2CCN(S(=O)(=O)c3ccc4c(c3)CCCN4C(C)=O)CC2)cc1,inactive: -12%
7,CCC(C)n1c(SCc2c(F)cccc2Cl)nc2ccsc2c1=O (stereo not drawn),inactive: -28.9%
8,COc1cc(C2CC(=O)N(Cc3ccc(F)cc3)c3ccccc3S2)cc(OC)c1OC (stereo not drawn),inactive: -1.53%
9,COc1cc2c(cc1OC)C(COc1ccc(F)cc1)N(C(=O)c1ccc(S(=O)(=O)N3CCCC3)cc1)CC2 (stereo not drawn),inactive: 2.39%
10,CCc1ccc(-c2nc3cc(NC(=O)c4cc5ccccc5cc4OC)ccc3o2)cc1,inactive: -7.24%
11,COC(=O)c1cc(NC(=O)[C@H](CCS(C)(=O)=O)N2Cc3ccccc3C2=O)cc(C(=O)OC)c1,inactive: 9.17%
12,CCc1cc(C(=O)NC(C)c2ccccc2)no1 (stereo not drawn),inactive: -10.3%
13,COc1ccc(Br)c(C(=O)Nc2cc3c(cc2N2CCCCC2)n(C)c(=O)c(=O)n3C)c1,inactive: -10.7%
14,CCOc1ccc(-c2cc(-c3nc(-c4cc(OC)c(OC)c(OC)c4)no3)[nH]n2)cc1Cl,inactive: -19%
15,CC(=O)Nc1ccc(NC(=O)c2ccc(COc3ccc(Cl)cc3Cl)o2)cc1,inactive: -7.45%
16,Cc1cccc(NC(=O)c2c(C)cc(C)nc2SCC(=O)Nc2c(C)cc(C)cc2C)c1,inactive: -11.5%
17,Cc1ccc(-n2nc(CO)c(C(=O)NCc3cccs3)n2)cc1C,inactive: -10.6%
18,COC(=O)c1ccccc1NC(=O)c1ccc2nc(Cc3ccccc3)oc2c1,inactive: -14.6%
19,O=C(CCCn1c(=O)c2ccccc2n(Cc2ccc(F)cc2Cl)c1=O)NCCc1ccc(Cl)cc1,inactive: -6.87%
20,COC(=O)c1ccccc1NC(=O)c1nc(S(=O)(=O)Cc2cccc(C)c2)ncc1Cl,inactive: -16.4%

row,Compound,activation
1,CC(=O)c1cccc(NC(=O)CSc2nc(=O)n(Cc3cccnc3)c3c2CCC3)c1,inactive: -10.7%
2,Oc1c(C(c2ccccc2F)N2CCCCC2)sc2nc(-c3ccco3)nn12 (stereo not drawn),inactive: -5.12%
3,Cc1cc(C)cc(NC(=O)CCCN2C(=O)COc3ccc(C)cc32)c1,inactive: -1.94%
4,O=C(COc1ccc([N+](=O)[O-])cc1)NCC1(N2CCOCC2)CCCCC1,inactive: -23%
5,COc1ccc(C)cc1NC(=O)C1CCN(S(=O)(=O)c2ccc3[nH]c4c(c3c2)CCCCC4)CC1,inactive: -12.2%
6,Nc1cc(=O)nc(SCC(=O)Nc2ccc(F)cc2)n1-c1ccccc1Cl,inactive: -17.1%
7,Cc1nc2sccn2c(=O)c1CCN1CCC(=C(c2ccc(F)cc2)c2ccc(F)cc2)CC1,inactive: -15.4%
8,COc1ccc(-n2ncc(C(=O)N3CCN(c4ncccn4)CC3)c2C2CCN(C(=O)OC(C)(C)C)CC2)cc1,inactive: 3.57%
9,Cc1ccccc1Nc1c(-c2ccc(Cl)s2)nc2c(C)cccn12,inactive: -33.6%
10,O=C(CCc1cn(Cc2ccccc2Cl)c2ccccc12)NC1CCCCC1,inactive: 0.108%
11,Cc1ccc(NC(=O)c2cn3c4c(ccc(Cl)c4c2=O)OC(C)C3)c(C)c1 (stereo not drawn),inactive: -12%
12,CC(C)CC(=O)Nc1ccc(S(=O)(=O)Nc2cc3c(cc2N2CCOCC2)n(C)c(=O)c(=O)n3C)cc1,inactive: -9.69%
13,CC(C)c1ccc(NC(=O)C2CCN(c3nc(-c4ccc(C(C)C)cc4)no3)CC2)cc1,inactive: -32.3%
14,CCCCc1nc2ccccc2n2c(-c3ccc(OC)cc3)c3c(=O)n(C)c(=O)n(C)c3c12,inactive: -8.23%
15,Cc1c(C(=O)N2CCC(C)CC2)c(S(=O)(=O)NCc2ccc(Br)cc2)c(C)n1C,inactive: -4.91%
16,O=C(Nc1ccc2c(c1)CCCN2C(=O)c1cccs1)c1c(F)cccc1F,inactive: 5.6%
17,CC(C)c1ccc(NC(=O)c2ccc3c(c2)CCCN3S(C)(=O)=O)cc1,inactive: -26.4%
18,C[C@H](CCC(=O)O)[C@H]1CC[C@H]2[C@@H]3C(=O)C[C@@H]4CC(=O)CC[C@]4(C)[C@H]3CC(=O)[C@]12C,inactive: -14.2%
